Activation data for 83 molecules are collected here from PubChem BioAssay AID1346428 (National Center for Advancing Translational Sciences (NCATS), 2018).

Where “and” joins values, the source holds several entries; their conditions need not be identical. Identical values can stand only once. Out of some 48,000 compounds screened, about 1,200 (2.5%) were called active. Another 2% or so got no clear call; they are omitted.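 The calls were made as follows: active = activation of at least 60% and not above a set upper limit (about 1 call in 100 departs from these limits); inconclusive = activation of 40% to 60%, or above that upper limit; inactive = activation under 40%.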 The list shows a part of the results.

UniProt O75388, sequence (O75388 whole entry, looked up, the tested form may be a part): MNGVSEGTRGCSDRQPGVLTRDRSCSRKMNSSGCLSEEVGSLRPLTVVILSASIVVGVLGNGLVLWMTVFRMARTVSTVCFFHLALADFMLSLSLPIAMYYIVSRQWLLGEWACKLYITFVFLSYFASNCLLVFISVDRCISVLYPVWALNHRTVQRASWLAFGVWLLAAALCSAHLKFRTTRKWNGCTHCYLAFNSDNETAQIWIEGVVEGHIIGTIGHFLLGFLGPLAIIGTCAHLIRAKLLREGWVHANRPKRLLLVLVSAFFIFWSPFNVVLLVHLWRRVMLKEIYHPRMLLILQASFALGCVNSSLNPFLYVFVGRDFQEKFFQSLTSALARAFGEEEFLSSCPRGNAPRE

This test has as its target Probable G-protein coupled receptor 32 (Homo sapiens) (UniProt O75388). The experiment in a line: qHTS for Agonists of Human Resolvin D1 Receptor DRV1. Also: 0% is about no effect. The following applies: CHO-K1 GPR32 beta-arrestin PathHunter luminescence, 90 min; at 76.9 µM; active compounds read high; zero percent set by DMSO-only wells. The method in brief:
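Agonism was scored as beta-arrestin recruitment to ProLink-fused GPR32 in stably transfected CHO-K1 cells, giving a chemiluminescent beta-Gal signal; compounds were incubated 90 min at 37 °C.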
With `Cc1nn(CCCC(=O)NCCc2ccc(Cl)cc2)c(=O)c2c1sc1ccccc12`, the activation was inactive: -19.3%.

For `Cc1ccccc1OCC(=O)Nc1ccccc1C(=O)OCc1cc(=O)n2ccsc2n1`, the activation is inactive: 0.573%.

For `Cc1cc(C(F)F)n2nc(C(=O)Nc3cccc(Cl)c3C)nc2n1`, the activation was inactive: -4.15%.

In the case of `O=C(Nc1ccc(-n2nncc2-c2ccccc2)cc1)c1cccc(F)c1`, the activation is inactive: -25.1%.

Turning to `COc1ccc2c(c1)c1c(c(=O)n(-c3ccccc3)c(=O)n1CC(=O)NCCC1=CCCCC1)n2C`, the activation was inactive: -24.9%.

Take `Cn1ncc2c(NCc3ccccc3Cl)nc(NCCO)nc21`: the activation was inactive: 22.9%.

On to `O=C(CN1C(=O)CCn2nc(-c3ccccc3)cc21)NCc1ccc(F)cc1`, for which the activation was inactive: -5.44%.

Turning to `CCOc1ccc(CNC(=O)C2CCN(S(=O)(=O)c3cn(C)cn3)CC2)cc1`, the activation was inactive: -11.6%.

For the molecule `Cc1cc(C)c(/C=C/c2onc(C)c2S(=O)(=O)N2CCC(C(=O)N(C)Cc3ccccc3)CC2)c(C)c1`, the activation is inactive: -21.9%.

For the molecule `Cc1ccc(NC(=O)Nc2nnc(N(C)C3CCCCC3)s2)c(Cl)c1`, the activation was inactive: -18.9%.

Turning to `CC(=O)NC(Cc1ccccc1)C(=O)O` (stereo not drawn), the activation is inactive: 5.32%.

Turning to `Cc1ccc(-n2c(=O)c3c4c(sc3n(Cc3ccccc3C)c2=O)CCC4)cc1C`, the activation was inactive: -8.3%.

Take `Cc1ccccc1C(=O)Nc1nc2nc(-c3ccccc3)cc(=O)n2[nH]1`: the activation is inactive: 11.4%.

Consider `O=C(Nc1ccc2c(c1)OCO2)c1cc(-c2ccc(Br)cc2)on1`, for which the activation is inactive: 9.84%.

Turning to `COc1ccc(O)cc1`, the activation is inactive: 7.95%.

Consider `NCCc1cnc[nH]1`, for which the activation was inactive: 2.69% and inactive: 3.14%.

Regarding `CCN1C(C(=O)c2ccccc2)=C(OC(=O)c2ccc(OC)cc2)c2ccccc2S1(=O)=O`, the activation was inactive: -33.8%.

On to `Cc1ccc(NC(=O)c2oc3ccc(S(=O)(=O)N4CCCCC4)cc3c2C)cc1Cl`, for which the activation is inactive: 0.827%.

For the molecule `CCN(Cc1ccccc1)C(=O)CCc1c(C)nc2c(c(C)nn2-c2ccc(C)c(C)c2)c1C`, the activation is inactive: -3.68%.

As for `Cn1c(=O)c2c(-c3ccc(Br)cc3)n(CCc3ccccc3)cc2n(C)c1=O`, the activation was inactive: -20.7%.

Take `CCc1cccc(C)c1NC(=O)Cn1cc2c(n1)CCCC2`: the activation was inactive: 12.5%.

With `COc1cccc(C(=O)NCc2cn3ccccc3n2)c1`, the activation was inactive: -2.27%.

Consider `NCCCC(=O)O`, for which the activation was inactive: 1.54%.

For the molecule `Cc1ccc2c(=O)cc(C(=O)Nc3ccc(S(=O)(=O)N(C)Cc4ccccc4)cc3)oc2c1C`, the activation is inactive: 7.68%.

As for `CN(N=O)C(=O)N[C@@H]1[C@@H](O)[C@H](O)[C@@H](CO)O[C@@H]1O`, the activation was inactive: 16.2%.

Consider `O=C(NCCCO)C(=O)NCC(c1ccc2c(c1)OCO2)N1CCOCC1` (stereo not drawn), for which the activation was inactive: 0.593%.

In the case of `CCOc1ccc(C(=O)c2cn(CC(=O)Nc3ccc(F)cc3)c3cc4c(cc3c2=O)OCCO4)cc1`, the activation was inactive: -2.87%.

As to `O=C(CSc1nnc(-c2ccccc2)c(-c2ccccc2)n1)NC1CCCC1`, the activation is inactive: -11.2%.

As to `CCOc1ccc(OCC)c(NS(=O)(=O)c2c(C(=O)N3CCCCCC3)c(C)n(C)c2C)c1`, the activation was inactive: -18.7%.

As to `COc1ccc(C2c3c(oc4ccc(C)cc4c3=O)C(=O)N2CCCN2CCOCC2)cc1OC` (stereo not drawn), the activation is inactive: -12.2%.

Consider `CCOC(=O)C1CCCN(S(=O)(=O)c2cc3c4c(c2)CC(=O)N4CCC3)C1` (stereo not drawn), for which the activation was inactive: -33.2%.

As for `CCc1ccc(NC(=O)Cn2c(=O)n(CCCCC(=O)NCCc3ccccc3)c(=O)c3ccccc32)cc1`, the activation was inactive: -1.87%.

As for `COc1ccc(C)cc1NC(=O)C1COc2ccccc2C1` (stereo not drawn), the activation is inactive: -15.1%.

In the case of `Fc1ccc(-n2cc(-c3ccccc3)c3c(NCCc4ccccc4)ncnc32)cc1`, the activation is inactive: -44.6%.

As for `COc1ccc(NC(=O)C2=CC(c3ccc4c(c3)OCO4)=NS(=O)(=O)N2C)cc1`, the activation is inactive: -27.2%.

For `CCC(C)(C)NC(=O)C1CCN(S(=O)(=O)c2c(C)noc2/C=C/c2ccc(C)cc2)CC1`, the activation is inactive: -2.97%.

For `COc1cccc(CNC(=O)c2oc3c(c2C)-c2nn(Cc4cccc(Cl)c4)cc2CC3)c1`, the activation is inactive: 3.06%.

Regarding `COc1ccc(-c2noc(CC(=O)Nc3ccc(Br)cc3C)n2)cc1`, the activation is inactive: -5.31%.

Take `CCOC(=O)c1c(NC(=O)COc2c(C)cc(Cl)cc2Cl)sc2c1CCCC2`: the activation was inactive: -10.4%.

With `COc1ccc(S(=O)(=O)NCC(c2ccc(N(C)C)cc2)N2CCCC2)cc1` (stereo not drawn), the activation was inactive: -13.1%.

Take `CCCCCCOC(=O)NC(=N)c1ccc(NCc2nc3cc(C(=O)N(CCC(=O)OCC)c4ccccn4)ccc3n2C)cc1`: the activation is inactive: -19.5%.

`Cc1ccc(S(=O)(=O)c2nc(-c3cccc(Cl)c3)oc2NCc2ccccc2)cc1`: the activation was inactive: -0.112%.

As to `Cc1cc(C)c(NC(=O)Cn2c(=O)n(Cc3ccc(C(=O)NCc4ccco4)cc3)c(=O)c3sccc32)c(C)c1`, the activation was inactive: -12.6%.

Consider `Cc1ccn2cc(-c3ccc(C)c(NS(=O)(=O)c4ccc(Cl)cc4)c3)nc2c1`, for which the activation is inactive: 0.181%.

In the case of `Cc1nnc(N2CCCC(C(=O)NCCc3ccccc3)C2)c2nn(-c3ccccc3)c(C)c12` (stereo not drawn), the activation was inactive: -21.4%.

For the molecule `CCOC(=O)Cn1c(=O)oc2cc(S(=O)(=O)N3CCN(c4cc(C)ccc4C)CC3)ccc21`, the activation was inactive: -14.3%.

With `COC(=O)c1cc2oc3ccccc3c2n1CC(=O)Nc1ccc(C)cc1C`, the activation is inactive: 3.43%.

As to `COCCCNC(=O)c1ccc2nc(CCc3ccccc3)oc2c1`, the activation is inactive: -17.9%.

In the case of `CCOC(=O)c1c(NC(=O)c2ccc(C)c(C)c2)sc2c1CCCCC2`, the activation was inactive: -21.6%.

Take `Cn1cnc(S(=O)(=O)N2CCCC(C(=O)Nc3ccc(OC(F)(F)F)cc3)C2)c1` (stereo not drawn): the activation is inactive: -5.27%.

With `CCc1ccc(C(=O)NC2=NC(c3ccccc3F)CC(=O)N2)cc1` (stereo not drawn), the activation was inactive: -7.1%.

For `CCC(=O)N1CCc2cc(S(=O)(=O)NC(C(=O)Nc3cc(OC)cc(OC)c3)C(C)C)ccc21` (stereo not drawn), the activation is inactive: -0.839%.

Consider `CN[C@@H]1[C@H](O)[C@H](NC)[C@H]2O[C@@]3(O)C(=O)C[C@@H](C)O[C@H]3O[C@@H]2[C@H]1O`, for which the activation is inactive: -28.9%.

`CCCN1CCN(CCCNC(=O)c2c(C)nn(-c3ccc(F)cc3)c2-n2cccc2)CC1`: the activation was inactive: 2.6%.

Regarding `CCOc1ccc(CNC(=O)Cn2c(=O)c3cccn3c3ccccc32)cc1`, the activation is inactive: -7.7%.

`Cc1c(Cl)ccc2sc(N3CCN(C(=O)CS(=O)(=O)c4ccccc4)CC3)nc12`: the activation was inactive: 47.2%.

On to `CCOc1ccc(OCC)c(NS(=O)(=O)c2ccc3c(c2)CCN3C(=O)C2CCC2)c1`, for which the activation is inactive: -12.2%.

With `O=C(Cc1c(C(=O)O)[nH]c2ccccc12)Nc1cccc(C(F)(F)F)c1`, the activation was inactive: 44%.

As for `Cc1ccc(OCC(=O)Nc2ccc(-c3nc4ccccc4o3)cc2)c(C)c1`, the activation is inactive: -4.36%.

For `O=C(Nc1ccccc1Br)N1CCC(CN2CCCC2)CC1`, the activation is inactive: -5.74%.

With `COc1ccc(CN2CCCN(CC(=O)Nc3ccc4c(c3)OCCO4)S2(=O)=O)cc1`, the activation was inactive: -3.9%.

As for `COc1ccccc1CNC(=O)CCCn1c(=O)c2ccccc2n(Cc2ccc(C)cc2)c1=O`, the activation was inactive: 3.09%.

As for `CN1CCN(C2Cc3ccccc3Sc3ccc(Cl)cc32)CC1` (stereo not drawn), the activation was inactive: 25.8% and inactive: -31.2%.

On to `Cc1ccc(C(=O)N2CCC(C(N)=O)CC2)cc1NC(=O)c1nsc2ccccc12`, for which the activation is inactive: -5.15%.

As to `COc1ccc(C2CC(=O)N(CC(=O)Nc3cccc(C)c3C)c3ccccc3S2)cc1OC` (stereo not drawn), the activation is inactive: -20.2%.

For `CCC(=O)Nc1ccc(O)cc1`, the activation is inactive: -6.67%.

In the case of `CCOC(=O)C1CCN(C(=O)c2nn(-c3ccc(OC)cc3)c(=O)c3c2c2ccccc2n3C)CC1`, the activation was inactive: 4.98%.

Take `Cc1ccc(Sc2ccc(N3CCCC(C(=O)Nc4ccc(F)cc4F)C3)nn2)cc1` (stereo not drawn): the activation was inactive: 35.5%.

As to `COc1ccc(N(CC(=O)NCCc2ccc(Cl)cc2)S(=O)(=O)c2c(C)nn(C)c2C)cc1`, the activation was inactive: -1.19%.

For `CC1CCN(S(=O)(=O)c2cc(C(=O)N3CCN(c4ccccc4F)CC3)n(C)c2)CC1`, the activation was inactive: 28.7%.

For the molecule `Cc1ccc(CSc2nc3cccnc3n2Cc2ccc(C(=O)NCCc3cccs3)cc2)cc1`, the activation was inactive: -18.1%.

As for `Cc1nn(C)c2c1c(C(F)(F)F)cc(=O)n2CC(=O)N1CCC(C)CC1`, the activation is inactive: 14.4%.

For the molecule `Cc1ccc(-c2noc(-c3nnn(CC(=O)Nc4cc(Cl)ccc4C)c3N)n2)cc1`, the activation was inactive: -22.6%.

As to `CCC1CN(C(=O)C2CCN(S(=O)(=O)c3c(C)noc3/C=C/c3ccccc3F)CC2)c2cc(C)ccc2O1` (stereo not drawn), the activation is inactive: -14.5%.

For the molecule `COc1ccc(NC(=O)c2oc3ccccc3c2NC(=O)Cc2cccs2)c(OC)c1`, the activation is inactive: -5.38%.

For `COc1ccc(CNC(=O)C(C)n2c(=O)cc(C)c3c(C)nn(-c4ccccc4)c32)cc1` (stereo not drawn), the activation is inactive: -19.7%.

Turning to `CCCCn1c(SCC(=O)NCc2ccc(C)cc2)nc2c(sc3ccccc32)c1=O`, the activation is inactive: -12.1%.

With `COCCN1CCN(Cc2ccc(C(=O)NC(C)C)cc2)C(=O)C1=O`, the activation is inactive: -12.4%.

Regarding `CCN1CCN(c2cc(C)c3cc(NC(=O)c4ccc(OC)c(OC)c4)ccc3n2)CC1`, the activation was inactive: 5.98%.

Regarding `CCc1cccc(NC(=O)C2CCN(S(=O)(=O)c3cccc(-c4noc(C)n4)c3)CC2)c1`, the activation is inactive: -0.0237%.

Take `NS(=O)(=O)c1cc2c(cc1Cl)NC(C(Cl)Cl)NS2(=O)=O` (stereo not drawn): the activation was inactive: 4.1%.

On to `Cc1nc2c(c(C)nn2-c2ccccc2)c(C)c1CCC(=O)NCc1ccccc1`, for which the activation was inactive: -0.383%.

As for `COc1ccc(C2c3cccn3CCN2S(=O)(=O)c2ccc([N+](=O)[O-])cc2)cc1` (stereo not drawn), the activation was inactive: -15.9%.
